Laboratory results taken from PMC5719402, “Protein-Structure Assisted Optimization of 4,5-Dihydroxypyrimidine-6-Carboxamide Inhibitors of Influenza Virus Endonuclease” (Scientific Reports, 2017).

System: influenza virus A/Puerto Rico/8/34 (H1N1)
Experiment: microbe, parasite or virus in culture
Format: cell-based
Conditions: for IC50: H1N1, MDCK, read-out: Plaque inhibition IC50

Row | SMILES | IC50 | Inhibition of wild type virus growth in plaque inhibition assay
1 | COc1cc2c(cc1OC)CC(NC(=O)c1nc([C@@H]3CCCN3C(=O)CSc3ccccc3Cl)[nH]c(=O)c1O)C2 [Compound 10j] | 7 µM | 
2 | O=C(NCCS(=O)(=O)c1ccccc1)c1nc([C@@H]2CCCN2C(=O)CSc2ccccc2Cl)[nH]c(=O)c1O [Compound 10e] | 12.8 µM | 
3 | O=C(NCCc1ccccc1)c1nc([C@@H]2CCCN2C(=O)c2c(Cl)cccc2Cl)[nH]c(=O)c1O [Compound 7a] | 23.7 µM | 
4 | O=C(NCC1Cc2ccccc2O1)c1nc([C@@H]2CCCN2C(=O)CSc2ccccc2Cl)[nH]c(=O)c1O (stereo partly shown) [Compound 10k] | 12.1 µM | 
5 | O=C(NCCc1ccccc1)c1nc([C@@H]2CCCN2C(=O)c2c(Cl)cncc2Cl)[nH]c(=O)c1O [Compound 7c] | 18.7 µM | 
6 | O=C(NCCOc1ccccc1)c1nc([C@@H]2CCCN2C(=O)COc2ccccc2Cl)[nH]c(=O)c1O [Compound 9f] | 38 µM | 
7 | O=C(NC1Cc2ccccc2C1)c1nc([C@@H]2CCCN2C(=O)CSc2ccccc2Cl)[nH]c(=O)c1O [Compound 10i] | 18.2 µM | 
8 | O=C(NC1Cc2ccccc2C1)c1nc([C@@H]2CCCN2C(=O)c2c(Cl)cncc2Cl)[nH]c(=O)c1O [Compound 8f] | 15.6 µM | 
9 | O=C(NCCS(=O)(=O)c1ccccc1)c1nc([C@@H]2CCCN2C(=O)c2c(Cl)cncc2Cl)[nH]c(=O)c1O [Compound 8e] | > 100 µM | no effect
